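How tested: cells in 96-well plates exposed to compound for 48 hours at five concentrations. TGI: total growth inhibition.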
Experiments:
Assay in all cases: NCI anticancer screen, dose series, 48 h
UACC-62 melanoma = tested on: UACC-62 melanoma
SW-620 colon = tested on: SW-620 colon
MCF7 breast = tested on: MCF7 breast
MOLT-4 leukemia = tested on: MOLT-4 leukemia
HCC-2998 colon = tested on: HCC-2998 colon
OVCAR-5 ovarian = tested on: OVCAR-5 ovarian
MDA-N = tested on: MDA-N
OVCAR-8 ovarian = tested on: OVCAR-8 ovarian
SK-OV-3 ovarian = tested on: SK-OV-3 ovarian
MDA-MB-435 = tested on: MDA-MB-435
UO-31 renal = tested on: UO-31 renal
HOP-92 NSCLC = tested on: HOP-92 NSCLC
SK-MEL-2 melanoma = tested on: SK-MEL-2 melanoma
NCI-H460 lung = tested on: NCI-H460 lung
OVCAR-3 ovarian = tested on: OVCAR-3 ovarian
A498 renal = tested on: A498 renal
HOP-62 NSCLC = tested on: HOP-62 NSCLC
NCI-H23 lung = tested on: NCI-H23 lung
A549 NSCLC = tested on: A549 NSCLC
DU-145 prostate = tested on: DU-145 prostate
NCI/ADR-RES ovarian = tested on: NCI/ADR-RES ovarian
RXF 393 renal = tested on: RXF 393 renal
HCT-15 colon = tested on: HCT-15 colon
PC-3 prostate = tested on: PC-3 prostate
IGROV1 ovarian = tested on: IGROV1 ovarian
K-562 leukemia = tested on: K-562 leukemia
LOX IMVI melanoma = tested on: LOX IMVI melanoma
SF-268 CNS = tested on: SF-268 CNS
CAKI-1 renal = tested on: CAKI-1 renal
SK-MEL-28 melanoma = tested on: SK-MEL-28 melanoma
UACC-257 melanoma = tested on: UACC-257 melanoma
SN12C renal = tested on: SN12C renal
COLO 205 colon = tested on: COLO 205 colon
TK-10 renal = tested on: TK-10 renal
U251 CNS = tested on: U251 CNS
ACHN renal = tested on: ACHN renal
T-47D breast = tested on: T-47D breast
SF-295 CNS = tested on: SF-295 CNS
MALME-3M melanoma = tested on: MALME-3M melanoma
SK-MEL-5 melanoma = tested on: SK-MEL-5 melanoma
HCT-116 colon = tested on: HCT-116 colon
SNB-19 CNS = tested on: SNB-19 CNS
HS 578T breast = tested on: HS 578T breast
M14 melanoma = tested on: M14 melanoma
SR leukemia = tested on: SR leukemia
EKVX NSCLC = tested on: EKVX NSCLC
BT-549 breast = tested on: BT-549 breast
786-0 renal = tested on: 786-0 renal
KM12 colon = tested on: KM12 colon
MDA-MB-231 breast = tested on: MDA-MB-231 breast
RPMI-8226 leukemia = tested on: RPMI-8226 leukemia
OVCAR-4 ovarian = tested on: OVCAR-4 ovarian
SNB-75 CNS = tested on: SNB-75 CNS
NCI-H522 lung = tested on: NCI-H522 lung
CCRF-CEM leukemia = tested on: CCRF-CEM leukemia

Measured: TGI

O=C1Cc2c([nH]c3ccc(C(F)(F)F)cc23)-c2cc(Br)ccc2N1
> 100 µM: all assays above

Reference: PubChem BioAssay (NCI)
